Target: T1, purified human glypican-4 (GPC-4) protein (human, UniProt O75487 19-529)
T1 sequence (looked up): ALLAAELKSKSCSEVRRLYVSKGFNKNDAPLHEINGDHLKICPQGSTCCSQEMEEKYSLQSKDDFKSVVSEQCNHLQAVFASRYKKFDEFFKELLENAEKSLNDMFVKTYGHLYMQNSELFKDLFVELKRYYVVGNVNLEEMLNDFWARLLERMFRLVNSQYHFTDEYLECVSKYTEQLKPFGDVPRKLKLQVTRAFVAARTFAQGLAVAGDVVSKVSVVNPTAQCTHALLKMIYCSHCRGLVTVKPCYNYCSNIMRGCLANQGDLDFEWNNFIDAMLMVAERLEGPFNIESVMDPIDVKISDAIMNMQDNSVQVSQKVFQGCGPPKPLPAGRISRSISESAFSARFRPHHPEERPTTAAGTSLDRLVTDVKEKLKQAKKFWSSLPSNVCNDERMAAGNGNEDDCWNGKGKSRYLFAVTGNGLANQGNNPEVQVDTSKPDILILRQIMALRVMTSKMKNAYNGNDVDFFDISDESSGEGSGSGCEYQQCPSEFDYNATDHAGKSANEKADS
Assay: native gel or EMSA

B1: purified human APOE4 protein (natural protein)
chain: not shown
  binding result: binds

— paper doi:10.1101/2021.07.07.451493 (bioRxiv, 2021)
